Source: patent publication US20230257470A1 (published 2023)

Target: T1, human FcγRIIa(R) (allotype R131) (human, UniProt P12318 36-217)
T1 construct: Soluble analyte in SPR; also called hFcgRIIa(R); FcgRIIaR
T1 chain: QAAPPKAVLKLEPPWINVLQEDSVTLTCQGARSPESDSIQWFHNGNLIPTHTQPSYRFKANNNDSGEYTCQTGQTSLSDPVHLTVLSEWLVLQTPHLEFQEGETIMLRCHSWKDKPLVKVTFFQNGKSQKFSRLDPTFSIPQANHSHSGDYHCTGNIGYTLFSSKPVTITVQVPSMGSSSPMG
Test: SPR (Biacore T100), antibody captured by Protein L, FcγR as analyte, pH 7.4, 25 C

BINDING AMOUNT (RU): 12.2 RU
B1: antibody containing VH3-IgG1-F648 for the heavy chain and L(WT)-CK for the light chain (antibody)
heavy: QVQLQESGPGLVKPSETLSLTCAVSGHSISHDHAWSWVRQPPGEGLEWIGFISYSGITNYNPSLQGRVTISRDNSKNTLYLQMNSLRAEDTAVYYCARSLARTTAMDYWGEGTLVTVSS[no letters for human IgG1 constant region with P238D (EU numbers)]
light: DIQMTQSPSSLSASVGDRVTITCRASQDISSYLNWYQQKPGKAPKLLIYYTSRLHSGVPSRFSGSGSGTDFTFTISSLQPEDIATYYCQQGNTLPYTFGQGTKVEIKRTVAAPSVFIFPPSDEQLKSGTASVVCLLNNFYPREAKVQWKVDNALQSGNSQESVTEQDSKDSTYSLSSTLTLSKADYEKHKVYACEVTHQGLSSPVTKSFNRGEC
notes: VH3-IgG1 with P238D (EU numbering)
